Measured values taken from article PMC6919601, “Identification of Plasmodium dipeptidyl aminopeptidase allosteric inhibitors by high throughput screening” (PLoS ONE, 2019).
Screen size: about 110,000 compounds; about 230 (0.21%) showed an effect of 50% or more. The list shows a part of the results.

The molecules below were run against DPAP1 (Plasmodium falciparum, UniProt Q8IIJ9) (assay: primary screen, percent inhibition; read by cleavage of a fluorogenic dipeptide substrate; higher = more effect of the substance).
DPAP1, sequence (Q8IIJ9 whole entry, looked up): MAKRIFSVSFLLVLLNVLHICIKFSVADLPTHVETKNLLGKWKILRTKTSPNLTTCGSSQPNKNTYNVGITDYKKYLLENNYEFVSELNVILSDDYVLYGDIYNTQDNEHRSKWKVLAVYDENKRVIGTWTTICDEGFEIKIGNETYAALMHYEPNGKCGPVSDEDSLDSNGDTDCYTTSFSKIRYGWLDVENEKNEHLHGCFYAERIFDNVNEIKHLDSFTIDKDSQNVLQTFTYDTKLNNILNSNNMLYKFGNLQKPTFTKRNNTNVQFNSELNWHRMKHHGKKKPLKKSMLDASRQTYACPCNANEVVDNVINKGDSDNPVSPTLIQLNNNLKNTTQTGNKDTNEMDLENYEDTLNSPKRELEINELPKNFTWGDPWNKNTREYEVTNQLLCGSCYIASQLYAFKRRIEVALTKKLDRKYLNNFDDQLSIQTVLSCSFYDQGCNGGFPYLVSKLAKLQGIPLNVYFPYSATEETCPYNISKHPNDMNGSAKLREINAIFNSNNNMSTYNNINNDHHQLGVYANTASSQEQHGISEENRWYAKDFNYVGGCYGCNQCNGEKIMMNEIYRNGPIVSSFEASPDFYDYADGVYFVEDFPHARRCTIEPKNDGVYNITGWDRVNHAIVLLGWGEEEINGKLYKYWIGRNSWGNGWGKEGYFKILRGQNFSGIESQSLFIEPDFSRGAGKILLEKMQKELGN
Set-up: species or system P. falciparum D10 trophozoite lysates; single well
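Further: 30 min substrate incubation versus DMSO and 10 µM JCP410 controls.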

Row | Compound | % Inhibition @ 10 uM
1 | O=C1CCCC2=C1C(c1ccccc1C(F)(F)F)C1=C(CCCC1=O)O2 | -0.305%
2 | CC(=O)N1CCN(Cc2ccccc2C(F)(F)F)CC1 | 1.88%
3 | CSc1cccc(-n2nnc(-c3nsc(NC(=O)c4ccc(C)c(C)c4)n3)c2C)c1 | 4.97%
4 | CCCCN(C)C(=O)NCc1noc2ccc(C)cc12 | 3.51%
5 | COc1ccc(N(CC(=O)NC2CC2)S(=O)(=O)c2ccccc2)cc1 | 2.42%
6 | Cc1nn(CC(=O)NCCC2=CCCCC2)c(=O)c2cc3cc(F)ccc3n12 | -5.32%
7 | Cc1ccc2nc3c(cc(C#N)c(=N)n3C(C)C)c(=O)n2c1 | -8.38%
8 | Cc1cc(/C=C2/C(=N)N3C(=NC2=O)SN=C3S(=O)(=O)C(C)C)c(C)n1Cc1ccccc1 | -7.21%
9 | Cc1c(Cl)c(C(F)(F)F)nn1CC(=O)N1CCSCC1 | -1.2%
10 | CC1CN(C(=O)c2ccc3c(c2)OCO3)OC(c2cccs2)O1 (stereo not drawn) | 2.36%
11 | Cc1ccc(OCC(=O)N2CCN(c3ccc(F)cc3)CC2)cc1C | -3.92%
12 | CCCOc1ccc2nc(C)c(CCC)c(S)c2c1 | 0.0538%
13 | COCCN1C(=O)c2[nH]nc(-c3cc(C)ccc3O)c2C1c1ccc(OC)c(OC)c1 (stereo not drawn) | 2.21%
14 | COc1ccc(CNCc2cc(OC)cc(OC)c2)cc1 | -4.16%
15 | CC(C)CNc1oc(/C=C/c2cccs2)nc1C#N | 4.83%
16 | Cc1ccc(/C=C2/NC(=O)N(Cc3ccc(F)cc3)C2=O)o1 | 3.48%
17 | CC(NC(=O)C(=O)NC(C)C1COc2ccccc2O1)C1COc2ccccc2O1 (stereo not drawn) | -1.06%
18 | CCC(=O)Nc1nc2nc(C)c(Cc3ccccc3)c(O)n2n1 | 3.66%
19 | C=CCSC1=C(C#N)C(c2ccccc2)CC(=O)N1 (stereo not drawn) | -5.79%
20 | Cc1ccc(CCNC(=O)COc2ccc3c(c2)C(=O)CC(C)(C)O3)cc1 | -4.97%
21 | Cn1c(=O)c2c(nc(CN3CCOCC3)n2Cc2ccc(F)cc2)n(C)c1=O | 1.23%
22 | Cc1ccc(S(=O)(=O)N(CC(=O)N2CCN(Cc3ccccc3)CC2)c2ccccc2F)cc1 | -1.59%
23 | CCCn1c2ccccc2c2cnn(CC(=O)NCCc3c(C)noc3C)c(=O)c21 | 1.43%
24 | N#CC1=C(N)Oc2[nH]nc(-c3ccccn3)c2C1c1ccncc1 (stereo not drawn) | -1.98%
25 | COC(=O)c1ccc(/C=c2\sc3nc4cc(C)c(C)cc4n3c2=O)cc1 | 10.9%
26 | COc1ccc(C(=O)N2CC3(C)C4CCC3(C)C2(C#N)C4)cc1 (stereo not drawn) | 0.214%

Row | Compound | % Inhibition @ 10 uM
27 | CC1C2CC(CC2(O)C#Cc2ccccc2)C1(C)C (stereo not drawn) | -2.77%
28 | Cc1c(Cc2ccccc2)sc(NC(=O)Nc2ccc(Cl)cc2)c1C(N)=O | -3.43%
29 | CCc1ccc(C2CC(=O)N3CN(Cc4ccco4)CSC3=C2C#N)cc1 (stereo not drawn) | 33.6%
30 | Cc1cc(C)nc(SCc2ccc(C#N)cc2Cl)n1 | -1.32%
31 | COC(=O)CCC(=O)Nc1cccc(C(=O)N[C@@H](CC(C)C)C(=O)NCC#N)c1 | 6.4%
32 | CCCN(CCC)S(=O)(=O)c1ccc(C)c([N+](=O)[O-])c1 | -6.46%
33 | CCC(NC(=O)c1cc(C)oc1C)c1ccccc1 (stereo not drawn) | 8.22%
34 | O=C(CCc1nc2cccnc2n1-c1ccccc1)NCc1cccs1 | -1.08%
35 | CCc1ccc(-c2[nH]nc3nc(-c4cccc(OC)c4O)cc(C(=O)O)c23)cc1 | 5.88%
36 | Cc1ccc(CNc2ncnc3c2cnn3-c2cccc(C)c2)cc1 | 1.42%
37 | CCCCNC(=O)CCn1nc(-c2ccccc2)c2ccccc2c1=O | -1.17%
38 | Cc1ccc(-n2nc3c(c2NC(=O)Cc2ccc(F)cc2)CS(=O)(=O)C3)cc1 | -0.349%
39 | O=C(O)C1CCCN1CP(=O)(O)O (stereo not drawn) | -3.69%
40 | Cc1nc2nncn2c(NCc2ccccc2Cl)c1C | -1.02%
41 | Cc1ccnc2nc(NC(=O)c3ccco3)nn12 | 3.66%
42 | CN(CCC#N)S(=O)(=O)c1ccc2ncc(C(=O)NCCc3ccccc3)c(O)c2c1 | -1.68%
43 | O=C(NCc1ccccn1)c1cc2c(Cl)ccc3c2n1CCO3 | 3.8%
44 | CC1CCN(S(=O)(=O)N2CCCC(C(=O)NCc3ccc(Cl)cc3)C2)CC1 (stereo not drawn) | 2.75%
45 | COc1ccc2c(CNCc3cccnc3)c(C(=O)O)n(Cc3ccccc3C)c2c1 | 5.94%
46 | O=[N+]([O-])c1c(N2CCOCC2)ccc2nonc12 | -8.15%
47 | O=C(Nc1ccc(Cl)cc1)c1cc2nc(C(F)F)cc(C(F)F)n2n1 | -5.13%
48 | CCN(CC)CCCCC(C#N)c1ccccc1 (stereo not drawn) | -5.79%
49 | Cc1cc(OCC(=O)N2CCCCC2)c(C(C)C)cc1Cl | -8.37%
50 | Cc1ccc(CN(CC(=O)Nc2cccc(Cl)c2)S(=O)(=O)c2ccccc2)cc1 | 0.331%
51 | COc1cc(C2C(C#N)=C(SCc3ccccc3)N=C3CCCC(O)=C32)ccc1O (stereo not drawn) | 32%
